Experimental data taken from PubChem BioAssay AID2546 (National Center for Advancing Translational Sciences (NCATS), 2010).
Hit rate of the full screen: of about 310,000 compounds, about 11,000 (3.5%) were called active. This list was built around the results that the source calls inconclusive (neither active nor inactive); the mix of calls is not that of the screen. The call rests on the fitted dose curve; in most records, active means well fitted inhibition curve with a large enough effect; inconclusive means small, poorly fitted or top-dose-only effect, or effect the other way; inactive means flat fitted curve, though single readings scatter. Potencies of inconclusive entries are left out as doubtful fits. Where a structure was tested more than once in an assay, its records may differ in their call.

experiment: VP16 counterscreen qHTS for inhibitors of ROR gamma transcriptional activity; details: Drosophila S2 Gal4-VP16 UAS-luciferase, luminescence, 20 h; series mostly up to 53.6 µM; activity, negative = inhibition: at the top concentration;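 further: Gal4-VP16 expression switched on by copper sulfate through the metallothionein promoter; nearly all actives have a fitted effect of over 50% in size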
On the % scale 0 is the no-effect control and ±100 the full control effect; potency means the concentration at half of the fitted maximal effect; tags describe the fitted curve by direction and shape.

Row | SMILES | Potency | activity, negative = inhibition
1 | O=C1c2ccccc2C(=O)c2c1ccc1c(=O)n(-c3ccccc3)[nH]c21 | inconclusive [inhibitor, single point] | –
2 | O=C(c1ccc(Cl)cc1)C1CCCN(Cc2cccc3cnccc23)C1 (configuration not stated) | active: 35.5 µM | –
3 | Nc1c(C(=O)NCC2CCCO2)c2nc3ccccc3nc2n1Cc1ccco1 (configuration not stated) | inconclusive [inhibitor, single point] | –
4 | O=C/C=C/c1ccccc1 | inconclusive [activator, single point] | –
5 | CCOC(=O)C1(CCOc2ccccc2)CCN(Cc2ccc(C)s2)CC1 | inconclusive [inhibitor, single point] | –
6 | COc1ccc2cc1Oc1ccc(cc1)CC1c3cc(c(OC)cc3CCN1C)Oc1c(OC)c(OC)cc3c1C(C2)N(C)CC3 (configuration not stated) | inconclusive [inhibitor, single point] | –
7 | CC(=O)Nc1ccccc1C(=O)OCC(=O)c1ccc2c(c1)OCCO2 | inconclusive [inhibitor, partial curve, poor fit] | –
8 | COC(=O)N1CCC2(CCCN(C)C2)CC1 | – | inactive: 9.62%
9 | COc1ccc(C(C)=O)cc1CC(C(=O)c1ccc(C)c(C)c1)N(C)C (configuration not stated) | – | inactive: -0.914%
10 | Cc1cc([N+](=O)[O-])c2ccccc2[n+]1[O-] | active: 3.55 µM | –
11 | CCCCn1c(=O)c(C(=O)NCc2ccc(Cl)cc2)c(O)c2ccccc21 | inconclusive [inhibitor, single point] | –
12 | CO/C1=C\C(C)=C\[C@@H](C)[C@@H](O)[C@@H](C)C/C(C)=C/C=C/[C@H](OC)[C@@H]([C@@H](C)[C@@H](O)[C@H](C)[C@@]2(O)C[C@@H](O)[C@H](C)C(C(C)C)O2)OC1=O (some centres not stated) | active: 7.08 µM | –
13 | Cc1cc(NC(=O)CCl)nn1C | inconclusive [inhibitor, single point] | –
14 | CCOC(=O)C1=C(NC(=S)NC(=O)c2ccccc2)c2ccccc2CC12CCCC2 | active: 4.47 µM | –
15 | CC/C(CC(c1ccccc1)c1c(O)c2ccccc2oc1=O)=N\NC(N)=S (configuration not stated) | inconclusive [inhibitor, single point] | –
16 | COP(=S)(OC)Oc1ccc([N+](=O)[O-])cc1 | active: 10 µM | –
17 | Cc1nn(Cc2ccccc2)c(C)c1C=C1C(=O)NC(=S)NC1=O | inconclusive [inhibitor, single point] | –
18 | C1=C(c2c[nH]c3ccccc23)CCNC1 | – | inactive: -3.88%
19 | Cc1cccc(Cn2cc(C=O)c3ccccc32)c1 | inconclusive [inhibitor, single point] | –
20 | Cc1ccc(C(C)C)c(OCCn2c(=O)oc3ccccc32)c1 | inconclusive [inhibitor, single point] | –
21 | Cn1c(O)c(C=NC2CCCCC2)c(=O)[nH]c1=S | – | inactive: -10.9%
22 | Nc1ccc([N+](=O)[O-])cc1O | inconclusive [inhibitor, single point] | –
23 | CC(C)(C)c1ccc(O)c(N=Cc2c(O)ccc3ccccc23)c1 | active: 11.2 µM | –
24 | O=C1NC(=O)N(c2ccccc2F)C(=O)/C1=C/c1cn(CC(=O)N2CCOCC2)c2ccccc12 | inconclusive [inhibitor, single point] | –

Row | SMILES | Potency | activity, negative = inhibition
25 | O=C(N/N=C/c1c(O)n(Cc2ccc(F)cc2)c(=O)[nH]c1=O)c1ccccc1O | inconclusive [inhibitor, single point] | –
26 | CC(CCc1ccccc1)NC(C)C(O)c1ccc(O)cc1 (configuration not stated) | inactive | –
27 | O=C(N=Nc1c(O)[nH]c(=O)[nH]c1=O)C1COc2cc3ccccc3cc2O1 (configuration not stated) | – | inactive: -3.55%
28 | CC1(C)CN=C(Nc2nc3ccccc3s2)S1 | inconclusive [inhibitor, single point] | –
29 | CCN(CC)S(=O)(=O)c1cc(NC(=O)C(C)N2CC=C(c3ccccc3)CC2)ccc1C (configuration not stated) | inconclusive [inhibitor, partial curve] | –
30 | CC(C)C(=O)c1cn(Cc2ccccc2C#N)c2ccccc12 | – | inactive: 7.26%
31 | O=C(O)C1CN(CP(=O)(O)O)CCN1 (configuration not stated) | – | inactive: -3.51%
32 | N[C@@H](Cc1ccc(N(CCCl)CCCl)cc1)C(=O)O | inactive | –
33 | Cc1ccc(-c2nn(Cc3ccccc3)cc2C=O)cc1 | inconclusive [activator, full curve, poor fit] | –
34 | CC1=CC(=O)c2c(O)cccc2C1=O | active: 12.6 µM | –
35 | COC(=O)C12CC3=CCC4C(=O)N(c5ccccc5)C(=O)C4C3Cc3ccccc3[C@@H]1CNC2=O (some centres not stated) | – | inactive: -0.597%
36 | CN1C(=O)NC(=O)/C(=C\C=C\c2ccccc2[N+](=O)[O-])C1=O | inconclusive [inhibitor, single point] | –
37 | COc1cc(/C=C/[N+](=O)[O-])ccc1O | active: 3.16 µM | –
38 | COc1cccc(C(=O)C2CCCN(Cc3ccccn3)C2)c1 (configuration not stated) | inconclusive [inhibitor, single point] | –
39 | CC(=O)O[C@H]1C(=O)[C@@]2(C)C([C@H](OC(=O)c3ccccc3)[C@]3(O)C[C@H](OC(=O)[C@H](O)[C@@H](NC(=O)Cc4ccccc4)c4ccccc4)C(C)=C1C3(C)C)[C@]1(OC(C)=O)CO[C@@H]1C[C@@H]2O (some centres not stated) | active: 12.6 µM | –
40 | CCc1ccc(CNCCc2ccc(F)cc2)cc1 | inconclusive [inhibitor, single point] | –
41 | Cc1csc(NC(=O)C2CCCN(S(=O)(=O)c3ccc4c(c3)oc(=O)n4C)C2)n1 (configuration not stated) | inconclusive [inhibitor, single point] | –
42 | Cc1[nH]c2ccccc2c1CCCNC1CCCCC1 | inconclusive [inhibitor, single point] | –
43 | CCCCn1c(=O)c(C(=O)NCCc2ccccc2)c(O)c2ccccc21 | inconclusive [inhibitor, single point] | –
44 | O=C1NC(=O)C(CCc2ccncc2)(Cc2cccc(Cl)c2Cl)C(=O)N1c1ccc(Br)cc1 (configuration not stated) | – | inactive: -22.9%
45 | CCC12CCCN3CCC4(c5ccc(OC)c(O)c5N(C(C)=O)C4CC1)C32 (configuration not stated) | inconclusive [activator, full curve] | –
46 | COP(N)(=O)SC (configuration not stated) | – | inactive: -1.58%
47 | CNC(C)C1CC[C@H](N)[C@@H](OC2C(N)C[C@H](N)[C@@H](OC3OC[C@](C)(O)C(NC)[C@H]3O)C2O)O1 (some centres not stated) | – | inactive: 3.97%
